# From PubChem BioAssay (Tox21)
# The shares of active, inactive and inconclusive entries below differ from those in the screen. Where the call is inconclusive, the potency comes from a doubtful curve fit. Calls of active or inactive are those of the source. Calls come from the whole dose curve; as a rule, active = well fitted activation curve with a large enough effect in the repeat runs; inconclusive = weak or mixed curves; inactive = flat fitted curve, though single readings scatter.
# Target: Nuclear receptor subfamily 1 group I member 2 (Homo sapiens) (UniProt O75469)
# Assay: Human pregnane X receptor (PXR) activation by small molecules, qHTS assay (AID 1346985); note: nearly all actives have a fitted effect of over 40% in size
# Conditions: DPX-2 HepG2 CYP3A4-luciferase, 24 h; series mostly up to 38.3 µM
# Description: National Center for Advancing Translational Sciences [NCATS]
# NIH Chemical Genomics Center [NCGC]
# U.S. Environmental Protection Agency [EPA]
# National Institutes of Environmental Health Sciences [NIEHS]
# National Toxicology Program [NTP]
# The Pregnane X receptor (PXR), a ligand activated nuclear receptor plays a critical role in the regulation of genes involved in drug metabolism and transporters. Activation of PXR may be involved in the unwanted adverse drug-drug interactions. […] Therefore, identification of compounds with the potential for PXR activation can be of importance in improving the efficacy of drugs with less toxicity and avoiding drug-drug interactions.
# DPX-2 (Puracyp, Inc.) cell lines, used for screening against human PXR activation has HepG2 cells co-transfected with a PXR response element and a luciferase construct containing CYP3A4 promoter. Increase in luciferase activity can be used to identify the compounds that activate the PXR pathway.
# DPX-2 cells were dispensed at 2,000 cells per well in 5uL of assay medium into white, solid-bottom 1536-well plates using a Multidrop Combi dispenser (Thermo Scientific). The assay plates were incubated at 37C for 5hr before transferring 23nL of test compounds dissolved in DMSO and positive control via Pintool station (Wako). The assay plates were incubated at 37C for 24hr. Then 5ul One-Glo assay reagent (Promega) was added to each plate by a Flying Reagent Dispenser (FRD, Aurora Discovery) and following 30 min incubation at room temperature, luciferase activity was quantified on a ViewLux plate reader (Perkin Elmer).
# Potency is the fitted concentration of half-maximal effect; tags give direction and shape of the fitted curve.
row,Structure (SMILES),Potency
1,Oc1cccc[c]1[Hg][Cl],"inconclusive: 28.2 µM [activator, single point]"
2,COCC(=O)N(c1c(C)cccc1C)C(C)C(=O)OC (stereo not given),"inconclusive: 6.31 µM [activator, full curve, poor fit]"
3,C[C@]12CC[C@H]3[C@@H](CCC4=C(Cl)C(=O)CC[C@@]43C)[C@@H]1CC[C@@H]2O,"inconclusive: 25.1 µM [activator, single point]"
4,O=C1C=C2C=C[C@@H]3C[C@@]2(O1)[C@H]1CCCCN31,"inconclusive: 31.6 µM [activator, single point]"
5,Cc1ccc(-c2nc3ccc(C)cn3c2CC(=O)N(C)C)cc1,inactive
6,COc1cc2c(cc1OC)[C@@]13CCN4CC5=CCO[C@H]6CC(=O)N2[C@H]1[C@H]6[C@H]5C[C@H]43,"inconclusive: 31.6 µM [activator, single point]"
7,CCC1(c2ccccc2)C(=O)N(COC)C(=O)N(COC)C1=O,"inconclusive: 17.8 µM [activator, partial curve, poor fit]"
8,CN1C(=O)CC(=O)N(c2ccccc2)c2cc(Cl)ccc21,"inconclusive: 28.2 µM [activator, single point]"
9,CC[C@]1(O)CC[C@H]2[C@@H]3CCC4=CCCC[C@@H]4[C@H]3CC[C@@]21C,active: 8.91 µM
10,CCC/C=C/C=C/C(=O)O[C@H]1/C(=C/C(=O)OC)C[C@H]2C[C@H]([C@@H](C)O)OC(=O)C[C@H](O)C[C@@H]3C[C@H](OC(C)=O)C(C)(C)[C@](O)(C[C@@H]4C/C(=C/C(=O)OC)C[C@H](/C=C/C(C)(C)[C@]1(O)O2)O4)O3,"inconclusive: 0.004 µM [activator, full curve, poor fit]"
11,CCN(CC)CCO[C@H]1CC[C@@]2(C)C(=CC[C@@H]3[C@@H]2CC[C@]2(C)C(=O)CC[C@@H]32)C1,"inconclusive: 2 µM [activator, full curve, poor fit]"
12,CC(C)[C@@]1(NC(=O)[C@@H]2C[C@@H]3c4cccc5[nH]cc(c45)C[C@H]3N(C)C2)O[C@@]2(O)[C@@H]3CCCN3C(=O)[C@H](Cc3ccccc3)N2C1=O,"inconclusive: 17.8 µM [activator, partial curve, poor fit]"
13,CCN(CC)C(C)C(=O)c1ccccc1 (stereo not given),inactive
14,O=C(CCl)c1ccc(Oc2ccc(C(=O)CCl)cc2)cc1,inactive
15,CCCCC[C@@H](O)C1C(=O)OC(C)[C@H](O)/C=C/C=C/C=C/C=C/C=C(\C)C(O)C(O)C(O)C[C@H](O)C[C@H](O)C[C@H](O)C[C@H](O)C[C@@H]1O (stereo not given in full),inactive
16,C=CC[C@]1(O)CC[C@H]2[C@@H]3CCC4=CCCC[C@@H]4[C@H]3CC[C@@]21C,"inconclusive: 28.2 µM [activator, single point]"
17,CN1C(=O)COc2c(C(=O)NC3CN4CCC3CC4)cc(Cl)cc21 (stereo not given),"inconclusive: 31.6 µM [activator, single point]"
18,CC(C)NC(C)Cc1ccc(I)cc1 (stereo not given),"inconclusive: 25.1 µM [activator, single point]"
19,CCN(CC)CCN1C(=O)CN=C(c2ccccc2F)c2cc(Cl)ccc21,active: 14.1 µM
20,CN[C@H]1C[C@@H](N)[C@H](O)[C@@H](O[C@@H]2O[C@H](CO)[C@H](O)[C@@H]3OC4(O[C@H]23)O[C@H](C(N)CO)[C@H](O)[C@H](O)[C@H]4O)[C@@H]1O (stereo not given in full),inactive

row,Structure (SMILES),Potency
1,Cc1ncc2n1-c1ccc(Cl)cc1C(c1ccccc1F)=NC2,"inconclusive: 7.94 µM [activator, full curve, poor fit]"
2,Oc1cc[c]([Hg][Cl])cc1,"inconclusive: 10 µM [activator, single point]"
3,CC[C@H]1[C@@H]2C[C@H]3[C@@H]4N(C)c5ccccc5[C@]45C[C@@H](C2[C@H]5O)N3[C@@H]1O (stereo not given in full),"inconclusive: 12.6 µM [activator, single point]"
4,CN1C[C@@H](NS(=O)(=O)N(C)C)C[C@@H]2c3cccc4c3c(cn4C)C[C@H]21,"inconclusive: 28.2 µM [activator, single point]"
5,NCC[C@H](O)C(=O)N[C@@H]1C[C@H](N)[C@@H](O[C@H]2O[C@H](CN)[C@@H](O)[C@H](O)[C@H]2N)[C@H](O[C@@H]2O[C@H](CO)[C@@H](O)[C@H]2O)[C@H]1O,inactive
6,C[C@@H](Cc1ccccc1)NCCC(c1ccccc1)c1ccccc1,"inconclusive: 12.6 µM [activator, single point]"
7,F/C(COc1ccc2c(c1)[nH]c1ccccc12)=C1/CN2CCC1CC2,active: 22.4 µM
8,Cc1nnc2n1-c1ccc(Cl)cc1C(c1ccccc1)=NC2,"inconclusive: 14.1 µM [activator, partial curve]"
9,CCN(CC)C(=O)N[C@H]1C[C@@H]2c3cccc4[nH]cc(c34)C[C@H]2N(C)C1,active: 25.1 µM
10,COc1ccc(C(=O)c2c(C)n(CCN3CCOCC3)c3ccccc23)cc1,active: 14.1 µM
11,CCC1C(C)=NN=C(c2ccc(OC)c(OC)c2)c2cc(OC)c(OC)cc21 (stereo not given),"inconclusive: 1 µM [activator, full curve, poor fit]"
12,CCC1(c2ccccc2)C(=O)NC(=O)N(C(=O)c2ccccc2)C1=O (stereo not given),"inconclusive: 28.2 µM [activator, single point]"
13,C[C@]12CC[C@H](O)C[C@H]1CC[C@@H]1[C@@H]2CC[C@]2(C)[C@@H](c3ccc(=O)oc3)C[C@H]3O[C@]132,active: 3.98 µM
14,CCCN1CCC[C@@H]2Cc3nc(N)ncc3C[C@H]21,inactive
15,CCC1(c2ccccc2)CCC(=O)NC1=O (stereo not given),"inconclusive: 25.1 µM [activator, single point]"
16,CCNC(C)Cc1cccc(C(F)(F)F)c1 (stereo not given),inactive
17,Cc1nnc2n1-c1ccc(Cl)cc1C(c1ccccc1Cl)=NC2,"inconclusive: 15.8 µM [activator, partial curve, poor fit]"
18,Clc1ccc(C(Cn2ccnc2)OCc2csc3c(Cl)cccc23)c(Cl)c1 (stereo not given),"inconclusive: 5.01 µM [activator, partial curve, poor fit]"
19,CNC1(c2ccccc2Cl)CCCCC1=O (stereo not given),"inconclusive: 14.1 µM [activator, partial curve]"
20,C=C[C@H]1CN2CC[C@H]1C[C@H]2[C@H](OC(=O)OCC)c1ccnc2ccc(OC)cc12,"inconclusive: 28.2 µM [activator, single point]"
